The structures appear in SMILES notation. This is one part of the list. Cut-off read from the data, not from the text of the source: active = 25% or less and inactive = the rest. Many values rest on one well or one pass, so single values are uncertain.

The test system of experiment [1] is Salmonella enterica serovar Typhimurium SL1344. As to the kind of experiment: bacterial growth OD600 after 18 h in MHB with 0.5 µg/mL polymyxin B; higher = more bacterial growth (less inhibition). As to conditions: 25 µM; polymyxin B 0.5 µg/mL; system: broth. The method, then:
(§1)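 Secondary screen of the 553 primary hits at 25 µM. (i) S. Typhimurium SL1344 grown in Mueller-Hinton broth with 0.5 µg/mL polymyxin B, OD600 read after 18 h. (ii) SAFIRE assay: RAW 264.7 macrophages infected with S. Typhimurium sifB::gfp (MOI 30); compound added 2 h post-infection; cells fixed at 18 h; GFP-positive pixel fraction per macrophage imaged by confocal microscopy and expressed as % of DMSO control.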

Experiment [2] has the same test system. As to the kind of experiment: intramacrophage bacterial GFP load (SAFIRE), percent of DMSO control (% of DMSO); higher = more intracellular bacteria (less inhibition). As to conditions: 25 µM; system: infected RAW 264.7 macrophages. The procedure: as §1
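Throughout, for bacterial growth OD600 after 18 h in MHB with 0.5 µg/mL polymyxin B: polymyxin B level opens the outer membrane while sparing the inner membrane, with novobiocin wells as reference growth inhibitor.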
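Throughout, for intramacrophage bacterial GFP load (SAFIRE), percent of DMSO control: compounds tested were the hits of an earlier 50 µM broth growth screen of a drug-like diversity library run with polymyxin B.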

With `CC(C)S(=O)(=O)c1ncc(CN(C)Cc2cccs2)n1Cc1ccccc1F`, the “bacterial growth OD600” value in experiment [1] was -0.01. Also, in experiment [2], the “intramacrophage bacterial GFP load” value was inactive: 110.

For `Cc1ccc(OCc2cc(C(=O)N(C)CCC(C)C)no2)cc1C`, in experiment [1], the “bacterial growth OD600” value was determined as 0. Further, the “intramacrophage bacterial GFP load” value in experiment [2] was inactive: 92.7.

As for `CCOC(=O)C1(Cc2ccccc2C)CCCN(S(=O)(=O)c2cccs2)C1` (stereo not drawn), the “bacterial growth OD600” value in experiment [1] was -0.002. Besides, in experiment [2], the “intramacrophage bacterial GFP load” value was inactive: 63.3.

Consider `Cc1csc(CNC(=O)CC(c2cccc(O)c2)c2cccc(Cl)c2)n1` (stereo not drawn), for which the “bacterial growth OD600” value in experiment [1] amounted to 0.414. Further, the “intramacrophage bacterial GFP load” value in experiment [2] is inactive: 99.1.

Take `COc1cccc(CC2(CCC(=O)NC(c3ccccc3)c3ccc(Cl)cc3)CCC(=O)N2)c1` (stereo not drawn): the “bacterial growth OD600” value in experiment [1] is -0.001. Besides, the “intramacrophage bacterial GFP load” value in experiment [2] is inactive: 138.

As to `Cc1ccc(CN2CCCC2C(=O)Nc2ccccc2Oc2cccnc2)cc1` (stereo not drawn), the “bacterial growth OD600” value in experiment [1] amounted to 0.004. Further, the “intramacrophage bacterial GFP load” value in experiment [2] was inactive: 40.8.

For the compound `Cc1nc(C(=O)NCc2cccnc2-n2ccnc2)cs1`, in experiment [1], the “bacterial growth OD600” value worked out at 0.552. Further, the “intramacrophage bacterial GFP load” value in experiment [2] was inactive: 157.

On to `Cc1nn(C)c(C)c1CN(C(=O)CC1(c2ccc(-c3ccccc3)cc2)CC(=O)N(C)C1=O)C1CC1` (stereo not drawn), for which the “bacterial growth OD600” value in experiment [1] was -0.001. In experiment [2], the “intramacrophage bacterial GFP load” value was inactive: 109.

On to `COC(=O)c1sccc1S(=O)(=O)N1CCCC(C(=O)c2cccc(Cl)c2)C1` (stereo not drawn), for which, in experiment [1], the “bacterial growth OD600” value was determined as 0.003. Also, the “intramacrophage bacterial GFP load” value in experiment [2] was inactive: 65.8.

Take `COc1ccc(Cl)cc1NC(=O)CCC1CCCN(C(=O)CC2CCCC2)C1` (stereo not drawn): in experiment [1], the “bacterial growth OD600” value was 0.432. In addition, the “intramacrophage bacterial GFP load” value in experiment [2] was inactive: 31.5.

With `Cc1cccc(-c2cnc(-c3ccncc3)nc2C2CCN(C(=O)CC3=CCCCC3)CC2)c1`, in experiment [1], the “bacterial growth OD600” value came out at 0.001. The “intramacrophage bacterial GFP load” value in experiment [2] was inactive: 102.

As to `COc1cc([C@@H]2C[C@H]3CN(CCc4ccccc4)C(=O)[C@]34CCCN24)c(Cl)cc1O`, the “bacterial growth OD600” value in experiment [1] was found to be 0.001. For the same compound, the “intramacrophage bacterial GFP load” value in experiment [2] was active: 22.6.

Regarding `Cc1ccc2c(c1)CN(Cc1cnn(C)c1C)CC(c1ccsc1)O2` (stereo not drawn), in experiment [1], the “bacterial growth OD600” value turned out to be 0.007. Besides, in experiment [2], the “intramacrophage bacterial GFP load” value is inactive: 85.9.

For `CC#CCN1C(=O)NC(CCCc2ccccc2)(C2CCN(C(=O)/C=C/c3ccccc3)CC2)C1=O` (stereo not drawn), the “bacterial growth OD600” value in experiment [1] came out at 0. In addition, the “intramacrophage bacterial GFP load” value in experiment [2] is active: 24.7.

`O=C(CCC1(Cc2ccc3ccccc3c2)CCC(=O)N1)NCc1cccc(Cl)c1` (stereo not drawn): the “bacterial growth OD600” value in experiment [1] came to 0. Further, the “intramacrophage bacterial GFP load” value in experiment [2] is inactive: 144.

In the case of `Fc1ccc(CN2CCOc3ccc(CN4CCC(Oc5cccnc5)CC4)cc3C2)cc1F`, the “bacterial growth OD600” value in experiment [1] was 0.009. Besides, the “intramacrophage bacterial GFP load” value in experiment [2] was active: 4.82.

For `COc1ccccc1C(=O)C1CCCN(C(=O)CCc2nc3ccccc3s2)C1` (stereo not drawn), the “bacterial growth OD600” value in experiment [1] was -0.008. The “intramacrophage bacterial GFP load” value in experiment [2] is inactive: 166.

On to `O=C(c1ccc(-c2ccccc2)cc1)C1CCCN(C(=O)CCc2ccncc2)C1` (stereo not drawn), for which the “bacterial growth OD600” value in experiment [1] was 0. Also, in experiment [2], the “intramacrophage bacterial GFP load” value was inactive: 71.5.

For the compound `Cc1ccn(CC(=O)N2CCCC(C(=O)c3ccc(-c4ccccc4)cc3)C2)n1` (stereo not drawn), in experiment [1], the “bacterial growth OD600” value was 0.002. Further, the “intramacrophage bacterial GFP load” value in experiment [2] is inactive: 75.4.

`Cc1ccn(CCC(=O)N(Cc2ccncc2)Cc2cccc(OCCc3ccc(F)cc3)c2)n1`: in experiment [1], the “bacterial growth OD600” value worked out at 0.002. The “intramacrophage bacterial GFP load” value in experiment [2] was inactive: 63.5.

Consider `CN1Cc2ccccc2CC1C(=O)N(Cc1ccncc1)Cc1cccc(OCCc2ccc(F)cc2)c1` (stereo not drawn), for which the “bacterial growth OD600” value in experiment [1] is -0.005. In addition, the “intramacrophage bacterial GFP load” value in experiment [2] was active: 21.7.

As for `O=C(c1cn(Cc2ccc(F)cc2)nn1)N1CCCC1c1nc2ccccc2s1` (stereo not drawn), in experiment [1], the “bacterial growth OD600” value stood at 0.299. In addition, in experiment [2], the “intramacrophage bacterial GFP load” value was inactive: 104.

Regarding `CCOC(=O)C1(Cc2ccc(Cl)cc2)CCN(C(=O)NC(C)(C)C)CC1`, in experiment [1], the “bacterial growth OD600” value came to 0.003. Further, in experiment [2], the “intramacrophage bacterial GFP load” value is inactive: 55.5.

Regarding `Cc1nonc1C1CCCN1c1ccc(-c2nc(COc3ccccc3)no2)cn1` (stereo not drawn), in experiment [1], the “bacterial growth OD600” value is 0.319. The “intramacrophage bacterial GFP load” value in experiment [2] is inactive: 165.

On to `COc1ccc(OCc2cc(C(=O)NC(CO)C(C)C)no2)c2ccccc12` (stereo not drawn), for which the “bacterial growth OD600” value in experiment [1] was 0.012. Further, the “intramacrophage bacterial GFP load” value in experiment [2] is inactive: 74.8.

Take `CC1CCN(Cc2nc(-c3cccc(Cl)c3)no2)CC1`: in experiment [1], the “bacterial growth OD600” value is 0.415. In experiment [2], the “intramacrophage bacterial GFP load” value is inactive: 33.5.

For the compound `CC(C)C(=O)N(C)C(Cc1ccccc1)C1CCN(C(=O)/C=C/c2cc(F)ccc2F)CC1` (stereo not drawn), in experiment [1], the “bacterial growth OD600” value is 0.347. For the same compound, the “intramacrophage bacterial GFP load” value in experiment [2] is inactive: 108.

For `CCOC(=O)C1(Cc2cccc(Cl)c2)CCCN(C(=O)c2ccc(C(C)=O)s2)C1` (stereo not drawn), the “bacterial growth OD600” value in experiment [1] is -0.019. Besides, the “intramacrophage bacterial GFP load” value in experiment [2] is inactive: 65.2.

Consider `OC(Cc1ccccc1)c1ccc2c(c1)CN(Cc1cc(F)cc(F)c1)CCO2` (stereo not drawn), for which the “bacterial growth OD600” value in experiment [1] is -0.008. Moreover, the “intramacrophage bacterial GFP load” value in experiment [2] is inactive: 70.1.

The values are drawn from the supplement of paper PMC12889115.
